The supplement of paper PMC4967469

How the values were obtained:
Test in all cases: Viability of human cancer cell lines after 72 h of drug (GDSC screen)
[1] = compound: CC1(C)CC(=O)c2c(C(F)(F)F)nn(-c3ccc(C(N)=O)c(N[C@H]4CC[C@H](O)CC4)c3)c2C1 [SNX-2112]; settings: top dose 2.56 µM
Experimental: (§1)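 Human cancer cell lines in 384-well plates, medium with 10% serum, drug for 72 h over a 256-fold dose range (nine 2-fold or five 4-fold steps up to the top dose). Adherent lines were fixed and stained with the nucleic acid dye Syto60, suspension lines read with resazurin; signal relative to control wells, capped at 0 and 100%. One two-parameter sigmoid per drug and line, fitted in a mixed model over all curves with the slope shared within a line.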

[2] = compound: CN(C)C/C=C/C(=O)Nc1cc2c(Nc3ccc(F)c(Cl)c3)ncnc2cc1O[C@H]1CCOC1 [Afatinib]
Experimental: as §1

[3] = compound: CN(c1ncccc1CNc1nc(Nc2ccc3c(c2)CC(=O)N3)ncc1C(F)(F)F)S(C)(=O)=O [PF-562271]; settings: top dose 2.56 µM; top dose inferred
Experimental: as §1

[4] = compound: O=C(NC1CC1)c1cccc(-c2ccc3c(NC(=O)C4CC4)n[nH]c3c2)c1 [XMD13-2]; settings: top dose 10.24 µM; top dose inferred
Experimental: as §1

[5] = top dose 0.5 µM, screen: GDSC drug entry 1032
[6] = top dose 10 µM, screen: GDSC drug entry 1377, top dose inferred

| Cell Line | AUC [1] | IC50 [1] | AUC [2, 5] | IC50 [2, 5] | AUC [2, 6] | IC50 [2, 6] | AUC [3] | IC50 [3] | AUC [4] | IC50 [4] |
| --- | --- | --- | --- | --- | --- | --- | --- | --- | --- | --- |
| OSC-20 (head and neck, adherent) | 0.462 | 123 nM | 0.929 | > 500 nM | 0.865 | > 10000 nM | 0.91 | > 2560 nM | 0.934 | > 10200 nM |
| OVCAR-3 (ovary, adherent) | 0.98 | > 2560 nM |  |  | 0.946 | > 10000 nM | 0.903 | > 2560 nM | 0.987 | > 10200 nM |
| OVCAR-8 (ovary, adherent) | 0.255 | 34.8 nM | 0.976 | > 500 nM | 0.944 | > 10000 nM | 0.958 | > 2560 nM | 0.949 | > 10200 nM |
| P31-FUJ (acute myeloid leukaemia, suspension) | 0.94 | > 2560 nM | 0.996 | > 500 nM | 0.996 | > 10000 nM | 0.995 | > 2560 nM | 0.982 | > 10200 nM |
| PA-TU-8902 (pancreas, adherent) | 0.544 | 215 nM | 0.954 | > 500 nM | 0.852 | 9840 nM | 0.912 | > 2560 nM | 0.945 | > 10200 nM |
| PANC-10-05 (pancreas, adherent) | 0.707 | 735 nM |  |  | 0.892 | > 10000 nM | 0.927 | > 2560 nM | 0.93 | > 10200 nM |
| PCI-38 (head and neck, adherent) | 0.573 | 254 nM |  |  | 0.923 | > 10000 nM | 0.906 | > 2560 nM | 0.932 | > 10200 nM |
| PL18 (pancreas, adherent) | 0.622 | 345 nM |  |  | 0.985 | > 10000 nM | 0.889 | > 2560 nM | 0.985 | > 10200 nM |
| RD (rhabdomyosarcoma, adherent) | 0.428 | 99.4 nM |  |  | 0.95 | > 10000 nM | 0.887 | > 2560 nM | 0.89 | > 10200 nM |
| RERF-GC-1B (stomach, adherent) | 0.839 | 2040 nM |  |  | 0.954 | > 10000 nM | 0.87 | > 2560 nM | 0.942 | > 10200 nM |
| RS4-11 (leukaemia, suspension) | 0.179 | 19.4 nM |  |  | 0.984 | > 10000 nM | 0.892 | > 2560 nM | 0.664 | 1750 nM |
| RT-112 (bladder, adherent) | 0.35 | 59.5 nM |  |  | 0.983 | > 10000 nM | 0.796 | 1300 nM | 0.883 | > 10200 nM |
| SCC-15 (head and neck, adherent) | 0.658 | 512 nM |  |  | 0.345 | 199 nM | 0.857 | > 2560 nM | 0.943 | > 10200 nM |
| SK-CO-1 (large intestine, adherent) | 0.374 | 73.5 nM |  |  | 0.97 | > 10000 nM | 0.92 | > 2560 nM | 0.986 | > 10200 nM |
| SK-LU-1 (lung adenocarcinoma, adherent) | 0.744 | 990 nM |  |  | 0.973 | > 10000 nM | 0.822 | 2060 nM | 0.934 | > 10200 nM |
| SK-MEL-28 (melanoma, adherent) | 0.919 | > 2560 nM |  |  | 0.956 | > 10000 nM | 0.988 | > 2560 nM | 0.961 | > 10200 nM |
| SN12C (kidney, adherent) | 0.849 | 2300 nM |  |  | 0.901 | > 10000 nM | 0.905 | > 2560 nM | 0.977 | > 10200 nM |
| SNU-398 (liver, adherent) | 0.374 | 70.8 nM |  |  | 0.957 | > 10000 nM | 0.71 | 642 nM | 0.88 | > 10200 nM |
| SNU-C2B (large intestine, adherent) | 0.436 | 101 nM | 0.897 | > 500 nM | 0.863 | > 10000 nM | 0.942 | > 2560 nM | 0.894 | > 10200 nM |
| SU-DHL-8 (B-cell lymphoma, suspension) | 0.295 | 44.3 nM |  |  | 0.968 | > 10000 nM | 0.937 | > 2560 nM | 0.582 | 1060 nM |
| SU-DHL-10 (B-cell lymphoma, suspension) | 0.17 | 25.1 nM |  |  | 0.998 | > 10000 nM | 0.9 | 1580 nM | 0.92 | 7320 nM |
| SW156 (kidney, adherent) | 0.94 | > 2560 nM |  |  | 0.826 | 6950 nM | 0.957 | > 2560 nM | 0.979 | > 10200 nM |
| SW837 (large intestine, adherent) | 0.636 | 431 nM |  |  | 0.84 | > 10000 nM | 0.976 | > 2560 nM | 0.936 | > 10200 nM |
| SW872 (soft tissue, adherent) | 0.734 | 687 nM |  |  | 0.976 | > 10000 nM | 0.884 | 2310 nM | 0.985 | > 10200 nM |
| SW1088 (glioma, adherent) | 0.716 | 796 nM |  |  | 0.938 | > 10000 nM | 0.963 | > 2560 nM | 0.956 | > 10200 nM |
| SW1463 (large intestine, adherent) | 0.868 | > 2560 nM |  |  | 0.771 | 7120 nM | 0.939 | > 2560 nM | 0.9 | > 10200 nM |
| T-24 (bladder, adherent) | 0.869 | 2180 nM |  |  | 0.972 | > 10000 nM | 0.928 | > 2560 nM | 0.952 | > 10200 nM |
| TC-71 (Ewing sarcoma, adherent) | 0.264 | 39.3 nM |  |  | 0.973 | > 10000 nM | 0.992 | > 2560 nM | 0.891 | 8430 nM |
| TCCSUP (bladder, adherent) | 0.553 | 228 nM |  |  | 0.982 | > 10000 nM | 0.976 | > 2560 nM | 0.961 | > 10200 nM |
| TE-10 (oesophagus, adherent) | 0.947 | > 2560 nM |  |  | 0.89 | > 10000 nM | 0.901 | > 2560 nM | 0.935 | > 10200 nM |

A lower IC50 marks a more sensitive line; a limit (>, <) means that the fit lies beyond the doses tested. AUC, from the same fit, is the share of area under the viability curve across the 256-fold dose range; values near 1 show little effect. For some of these results: A top dose marked as inferred was derived from the fitted curves, not read from the paper. For some of these results: Drugs with an entry number were screened twice under separate entries, and the two screens often disagree.
